# The supplement of paper PMC4723716
# ± gives the uncertainty stated by the source. Over roughly 9,900 compounds, “viability index relative to DMSO control” has its median near 1; the lowest 2% begin near 0.85. The list shows a part of the results.
# Tested on: Plasmodium falciparum NF54 stage V gametocytes
# Test: viability index relative to DMSO control (fraction); higher = less gametocyte killing
# Conditions: 2.5 µM, incubation time: 72 h
# How it was run: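 In 1,536-well plates, 10 µl of serum-free medium holding P. falciparum NF54 stage V gametocytes (0.75% gametocytemia, 1.25% hematocrit) received compound at 2.5 µM for 72 hr at 37°C in low oxygen. After one to two hours with 3 µl of 2.5 µM MitoTracker Red CMXRos containing 0.13% saponin, red particles of 20–70 µm2 were counted in a single field per well. Viability index is reported as the particle count over the plate mean of wells treated with solvent only.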
# [1] = library set: Broad Institute DOS
# [2] = library set: Broad Institute Blood Stage
SMILES,viability index [1],viability index [2]
O=C(C[C@@H]1CC[C@H]2[C@@H](COC[C@H](O)CN2C(=O)c2ccccc2F)O1)NCc1ccc(Cl)c(Cl)c1,1.11 ± 0.095,–
CCCN1[C@H](C(=O)OC)[C@@H](CO)[C@@H]2Cn3c(ccc(-c4cccc(OC)c4)c3=O)[C@@H]21,0.99 ± 0.089,–
CN1CCN(C(=O)C[C@H]2C[C@H]3c4cc(NS(C)(=O)=O)ccc4O[C@H]3[C@H](CO)O2)CC1,1.02 ± 0.1,–
CC(=O)N1[C@H](CO)[C@@H](c2ccc(-c3ccccc3F)cc2)C12CN(CC1CCOCC1)C2,1.07 ± 0.13,–
N#C[C@H]1[C@@H](c2ccccc2-c2ccccc2F)[C@@H](CO)N1C(=O)Cc1ccccc1,1.17 ± 0.077,–
O=C(C[C@@H]1CC[C@@H]2NC[C@@H](O)COC[C@H]2O1)Nc1nccs1,1.09 ± 0.092,–
C[C@@H]1CN([C@@H](C)CO)C(=O)CCCn2nncc2CO[C@H]1CN(C)C(=O)c1ccc(N2CCN(C)CC2)cc1,1.01 ± 0.025,–
CO[C@@H]1CC[C@H]2CCN(C)C(=O)[C@@H](C)N(C)C(=O)c3cccc(C#N)c3OC[C@H]1O2,1.08 ± 0.077,–
CC(C)[C@H]1C(=O)N[C@H](c2cccc(Cl)c2)C/C=C/C[C@H](C)Oc2ccccc2C(=O)N1C.CC(C)[C@H]1C(=O)N[C@H](c2cccc(Cl)c2)C/C=C\C[C@H](C)Oc2ccccc2C(=O)N1C,0.9865 ± 0.0032,–
CN1CCN(C(=O)C[C@@H]2C[C@@H]3c4cc(NS(C)(=O)=O)ccc4O[C@@H]3[C@H](CO)O2)CC1,1.084 ± 0.0097,–
COc1cccc(-c2ccccc2[C@H]2[C@@H](C#N)N(C(=O)Cc3ccccc3)[C@H]2CO)c1,1.07 ± 0.14,–
C[C@@H]1CN([C@@H](C)CO)C(=O)c2cc(NC(=O)C3CCCCC3)ccc2O[C@@H](C)CCCCO[C@H]1CN(C)C(=O)CCC(F)(F)F,1.07 ± 0.071,–
O=C([C@H]1[C@H](CO)[C@H]2Cn3c(cccc3=O)[C@H]2N1Cc1cocn1)N1CCC(Cc2ccccc2)CC1,1.05 ± 0.021,–
COc1ccccc1-c1ccccc1[C@H]1[C@@H](CO)N(C(=O)CN(C)C)[C@H]1C#N,1.14 ± 0.12,–
C[C@H](NC(=O)C[C@H]1CC[C@H]2[C@@H](COc3ccc(NC(=O)C4CCOCC4)cc3C(=O)N2C)O1)c1ccccc1,1.14 ± 0.073,–
CCc1cnc(N2[C@H](C#N)[C@H](c3ccccc3-c3ccccc3C)[C@H]2CO)s1,1.07 ± 0.055,–
CC(=O)N1CC2(C1)[C@H](c1ccccc1)[C@H](CO)N2C(=O)c1cnccn1,1.09 ± 0.023,–
CN1C(=O)c2cc(NC(=O)NCc3ccccc3)ccc2OC[C@H]2O[C@@H](CC(=O)NCC3CCCCC3)CC[C@@H]21,1.03 ± 0.015,–
O=C(Cc1ccncc1)Nc1ccc2c(c1)[C@@H]1C[C@@H](CC(=O)N3CCc4ccccc4C3)O[C@@H](CO)[C@@H]1O2,1.08 ± 0.043,–
CN1C(=O)c2cc(NC(=O)c3cnccn3)ccc2OC[C@@H]2O[C@@H](CC(=O)N[C@@H]3CCN(Cc4ccccc4)C3)CC[C@H]21,0.947 ± 0.15,–
O=C(c1ccc(F)cc1)N1CC(=O)N2[C@H](C1)[C@@H](c1ccc(-c3cccnc3)cc1)[C@@H]2CO,–,0.733 ± 0.11
CO[C@@H]1CC[C@H]2CCN(C)C(=O)CCCN(C)C(=O)c3cc(C#N)ccc3OC[C@@H]1O2,0.919 ± 0.02,–
CN(C)CC(=O)N1[C@@H](C#N)[C@H](c2ccc(C#CC3CCCCC3)cc2)[C@@H]1CO,1.06 ± 0.021,–

SMILES,viability index [1],viability index [2]
COc1ccc2c3c([C@@H](CO)N(Cc4ccc(Cl)cc4)C[C@]33CN(C3)C(=O)NC(C)C)n(C)c2c1,0.998 ± 0.079,–
COc1cccc(CNC(=O)C[C@@H]2CC[C@H]3[C@@H](COc4ccc(NS(=O)(=O)c5ccccc5F)cc4C(=O)N3C)O2)c1,0.979 ± 0.099,–
CO[C@H]1CN(C)C(=O)c2cc(NC(=O)C3CCCCC3)ccc2OC[C@H](C)N(C(=O)c2ccccc2)C[C@H]1C,1.04 ± 0.084,–
COc1cccc(CN2C[C@@]3(C2)CN([C@H](CO)c2[nH]c4cc(OC)ccc4c32)S(C)(=O)=O)c1,0.954 ± 0.15,–
CCCC(=O)N1C[C@@]2(C1)CN([C@@H](CO)c1[nH]c3cc(OC)ccc3c21)C(=O)c1ccc(F)cc1,1.04 ± 0.072,–
CCCNC(=O)[C@H]1[C@H](CO)[C@H]2Cn3c(ccc(C4=CCCC4)c3=O)[C@H]2N1C(=O)c1cnccn1,1.06 ± 0.05,–
COc1ccccc1NC(=O)N1C[C@@H](O)COC[C@H]2O[C@@H](CC(=O)N3CCC(Cc4ccccc4)CC3)CC[C@@H]21,1.065 ± 0.0029,–
CO[C@H](CN(C)CC1CCOCC1)[C@@H](C)CN(C(=O)Nc1ccc(F)cc1)[C@H](C)CO,1.04 ± 0.052,–
COc1ccc(S(=O)(=O)N(C)C[C@H]2OCCCC[C@H](C)Oc3ccc(NC(=O)Cc4ccccc4)cc3C(=O)N([C@H](C)CO)C[C@H]2C)cc1,0.9061 ± 0.001,–
COc1ccc2c3c([C@H](CO)N(C[C@]33CCN(CC3)C(=O)Nc3c(C)noc3C)C(=O)Nc3ccc(F)cc3)n(C)c2c1,1.06 ± 0.082,–
CCC(=O)N1C[C@H]2[C@@H](c3ccccc31)[C@@H](CO)N2C(=O)CC1CC1,0.974 ± 0.11,–
COc1ccccc1NC(=O)N1[C@@H](C#N)[C@@H](c2ccccc2)[C@@H]1CO,1.01 ± 0.17,–
C[C@H](CO)N1C[C@H](C)[C@H](CN(C)S(=O)(=O)c2ccc(C#N)cc2)OCc2ccccc2-c2c(n(C)c3ccccc23)C1=O,–,1.01 ± 0.03
Cc1noc(C)c1NC(=O)N1C[C@H](O)COC[C@H]2O[C@H](CC(=O)N[C@@H]3CCN(Cc4ccccc4)C3)CC[C@@H]21,0.974 ± 0.027,–
C/C=C/c1ccc([C@H]2[C@@H](CO)N(CC3CCCC3)[C@H]2CNS(C)(=O)=O)cc1,1.03 ± 0.099,–
CN1C(=O)c2cc(NC(=O)c3cscn3)ccc2OC[C@@H]2O[C@@H](CC(=O)N3CCOCC3)CC[C@@H]21,1.062 ± 0.0077,–
CNC(=O)C[C@H]1CC[C@H]2[C@@H](COc3ccc(NC(=O)c4ccccc4F)cc3C(=O)N2C)O1,1.08 ± 0.095,–
CCNC(=O)C[C@@H]1CC[C@@H]2[C@H](COC[C@@H](O)CN2C(=O)C2CCCC2)O1,1.03 ± 0.034,–
COc1ccc(S(=O)(=O)Nc2ccc3c(c2)C(=O)N([C@@H](C)CO)C[C@H](C)[C@H](CN(C)C(=O)Nc2c(C)noc2C)OCCCC[C@H](C)O3)cc1,1.04 ± 0.022,–
C[C@H]1CN([C@@H](C)CO)C(=O)c2ccccc2-c2ccccc2CO[C@H]1CN(C)C(=O)Nc1ccnc(N2CCOCC2)c1,1.02 ± 0.036,–
C/C=C/c1ccc2c(c1)[C@H]1[C@H](CCN1Cc1ccc(F)cc1)[C@H](CO)N2,1.08 ± 0.041,–
CC(=O)N1CC[C@@H]2[C@@H](CO)Nc3ccc(-c4ccccc4)cc3[C@@H]21,1.04 ± 0.063,–
CO[C@@H]1CN(C)C(=O)c2cc(NC(=O)c3ccc(F)cc3)ccc2OC[C@@H](C)N(C(=O)CC2CC2)C[C@H]1C,1.07 ± 0.035,–

SMILES,viability index [1],viability index [2]
CN1c2ccc(-c3cccc(C#N)c3)cc2[C@H]2[C@H](CCN2C(=O)CN2CCOCC2)[C@H]1CO,1.06 ± 0.076,–
O=C(c1cnccn1)N1CC(=O)N2[C@H](CO)[C@@H](c3ccc(-c4cccc(F)c4)cc3)[C@@H]2C1,0.99 ± 0.047,–
COc1ccc(S(=O)(=O)Nc2ccc3c(c2)CC(=O)N([C@@H](C)CO)C[C@@H](C)[C@@H](CN(C)C(=O)Nc2c(C)noc2C)O3)cc1,0.906 ± 0.067,–
O=C(C[C@@H]1C[C@H]2c3cc(NC(=O)C4CCOCC4)ccc3O[C@H]2[C@@H](CO)O1)NCc1cccnc1,1.06 ± 0.047,–
CO[C@H](CN(C)CC1CCOCC1)[C@H](C)CN(C(=O)Nc1ccc(F)cc1)[C@H](C)CO,0.993 ± 0.058,–
COc1ccccc1C(=O)Nc1ccc2c(c1)C(=O)N(C)C[C@H](OC)[C@H](C)CN(C(C)=O)[C@H](C)CO2,1.08 ± 0.017,–
COc1cccc(-c2ccc3n(c2=O)C[C@H]2[C@H](CO)[C@@H](C(=O)NC4Cc5ccccc5C4)N[C@@H]32)c1,1.12 ± 0.021,–
COCC(=O)NC[C@@H]1[C@@H](c2ccccc2)[C@@H](CO)N1C(=O)c1ccccc1,0.9668 ± 0.0031,–
CO[C@@H]1CN(C)C(=O)c2ccc(NC(C)=O)cc2OC[C@H](C)N(C(=O)c2cnccn2)C[C@@H]1C,1.15 ± 0.013,–
CN(C)C(=O)c1cccc(-c2ccccc2[C@H]2[C@@H](C#N)N(C(=O)C3CCCCC3)[C@@H]2CO)c1,1.13 ± 0.062,–
CN1CCN(C(=O)C[C@@H]2CC[C@@H]3[C@H](COC[C@@H](O)CN3Cc3cccc(-c4ccncc4)c3)O2)CC1,1.06 ± 0.083,–
O=C(C[C@H]1C=C[C@@H](NC(=O)c2ccc3c(c2)OCO3)[C@H](CO)O1)NC1Cc2ccccc2C1,0.941 ± 0.069,–
O=C(O)[C@@H]1[C@@H](CO)[C@@H]2Cn3c(ccc(C4=CCCCC4)c3=O)[C@@H]2N1Cc1ccc2c(c1)OCO2,1.04 ± 0.042,–
O=C(NC1CCCCC1)[C@H]1[C@H](CO)[C@H]2Cn3c(cccc3=O)[C@@H]1N2Cc1cccnc1,1.09 ± 0.021,–
C[C@@H]1CN([C@@H](C)CO)C(=O)c2cccc(NC(=O)c3ccc(-c4nccs4)cc3)c2O[C@@H]1CN(C)C(=O)Nc1ccc(C(F)(F)F)cc1,0.556 ± 0.084,–
O=C(O)[C@H]1[C@H](CO)[C@H]2Cn3c(ccc(-c4cccc(F)c4)c3=O)[C@H]2N1C(=O)c1ccccn1,1.03 ± 0.16,–
O=C(Nc1ccc(C(F)(F)F)cc1)N[C@@H]1C=C[C@H](CC(=O)N2CCCCC2)O[C@@H]1CO,1.15 ± 0.12,–
COc1ccc(CNC(=O)C[C@H]2CC[C@@H](NC(=O)CN(C)C)[C@@H](CO)O2)cc1,1.079 ± 0.0035,–
CCCNC(=O)N1[C@H](CO)[C@@H]2c3ccccc3N(C(=O)c3ccncc3)C[C@@H]21,0.997 ± 0.076,–
COc1ccc2c3c([C@@H](CO)N(C[C@]33CN(C3)C(=O)Nc3cccc(F)c3)C(=O)C3CCOCC3)n(C)c2c1,1.06 ± 0.05,–
CCS(=O)(=O)N[C@@H]1CC[C@@H](CC(=O)N2CCCCC2)O[C@@H]1CO,1.02 ± 0.036,–
COc1ccc2c3c([C@H](CO)NC[C@]33CCN(Cc4cc(on4)-c4ccccc4)CC3)n(C)c2c1,0.893 ± 0.015,–
C[C@@H]1CN([C@H](C)CO)C(=O)c2ccccc2-c2ccccc2CO[C@@H]1CN(C)S(=O)(=O)Cc1ccccc1,1.06 ± 0.17,–
